We go through 25 compounds from patent US10787442B2, “Modulators of indoleamine 2,3-dioxygenase” (GLAXOSMITHKLINE INTELLECTUAL PROPERTY DEVELOPMENT LIMITED, priority 2016, dated 2020).

The target in this assay is indoleamine 2, 3-dioxygenase (IDO1) (Homo sapiens, UniProt P14902). The experiment in a line: IDO1 PBMC RapidFire MS Assay (kynurenine by mass spectrometry). The settings on record: human PBMC stimulated with IFN-γ and LPS, 2 days; recorded as pIC50; read-out: IDO1 PBMC PXC50 (converted). The class given is cell-based. On the procedure: IDO1 PBMC RapidFire MS Assay
Compounds of the present invention were tested via high-throughput cellular assays utilizing detection of kynurenine via mass spectrometry and cytotoxicity as end-points. […] Compounds with IDO1 inhibitory properties decreased the amount of kynurenine produced by the cells via the tryptophan catabolic pathway. Cellular toxicity due to the effect of compound treatment was measured using CellTiter-Glo® reagent (CTG) (Promega Corporation, Madison, Wis.), which is based on luminescent detection of ATP, an indicator of metabolically active cells.
In preparation for the assays, test compounds were serially diluted 3-fold in DMSO from a typical top concentration of 1 mM or 5 mM and plated at 0.5 μL in 384-well, polystyrene, clear bottom, tissue culture treated plates with lids (Greiner Bio-One, Kremsmünster, Austria) to generate 11-point dose response curves. Low control wells (0% kynurenine or 100% cytotoxicity) contained either 0.5 μL of DMSO in the presence of unstimulated (−IFN-γ/−LPS) PBMCs for the mass spectrometry assay or 0.5 μL of DMSO in the absence of cells for the cytotoxicity assay, and high control wells (100% kynurenine or 0% cytotoxicity) contained 0.5 μL of DMSO in the presence of stimulated (+IFN-γ/+LPS) PBMCs for both the mass spectrometry and cytotoxicity assays.
Frozen stocks of PBMCs were washed and recovered in RPMI 1640 medium (Thermo Fisher Scientific, Inc., Waltham, Mass.) supplemented with 10% v/v heat-inactivated fetal bovine serum (FBS) (Thermo Fisher Scientific, Inc., Waltham, Mass.), and 1× penicillin-streptomycin antibiotic solution (Thermo Fisher Scientific, Inc., Waltham, Mass.). The cells were diluted to 1,000,000 cells/mL in the supplemented RPMI 1640 medium. 50 μL of either the cell suspension, for the mass spectrometry assay, or medium alone, for the cytotoxicity assay, were added to the low control wells, on the previously prepared 384-well compound plates, resulting in 50,000 cells/well or 0 cells/well respectively. IFN-γ and LPS were added to the remaining cell suspension at final concentrations of 100 ng/ml and 50 ng/ml respectively, and 50 μL of the stimulated cells were added to all remaining wells on the 384-well compound plates. The plates, with lids, were then placed in a 37° C., 5% CO2 humidified incubator for 2 days.
Following incubation, the 384-well plates were removed from the incubator and allowed to equilibrate to room temperature for 30 minutes. For the cytotoxicity assay, CellTiter-Glo® was prepared according to the manufacturer's instructions, and 40 μL were added to each plate well. After a twenty minute incubation at room temperature, luminescence was read on an EnVision® Multilabel Reader (PerkinElmer Inc., Waltham, Mass.). For the mass spectrometry assay, 10 μL of supernatant from each well of the compound-treated plates were added to 40 μL of acetonitrile, containing 10 μM of an internal standard for normalization, in 384-well, polypropylene, V-bottom plates (Greiner Bio-One, Kremsmünster, Austria) to extract the organic analytes. Following centrifugation at 2000 rpm for 10 minutes, 10 μL from each well of the acetonitrile extraction plates were added to 90 μL of sterile, distilled H2O in 384-well, polypropylene, V-bottom plates for analysis of kynurenine and the internal standard on the RapidFire 300 (Agilent Technologies, Santa Clara, Calif.) and 4000 QTRAP MS (SCIEX, Framingham, Mass.). MS data were integrated using Agilent Technologies' RapidFire Integrator software, and data were normalized for analysis as a ratio of kynurenine to the internal standard.

UniProt P14902, sequence (P14902 whole entry): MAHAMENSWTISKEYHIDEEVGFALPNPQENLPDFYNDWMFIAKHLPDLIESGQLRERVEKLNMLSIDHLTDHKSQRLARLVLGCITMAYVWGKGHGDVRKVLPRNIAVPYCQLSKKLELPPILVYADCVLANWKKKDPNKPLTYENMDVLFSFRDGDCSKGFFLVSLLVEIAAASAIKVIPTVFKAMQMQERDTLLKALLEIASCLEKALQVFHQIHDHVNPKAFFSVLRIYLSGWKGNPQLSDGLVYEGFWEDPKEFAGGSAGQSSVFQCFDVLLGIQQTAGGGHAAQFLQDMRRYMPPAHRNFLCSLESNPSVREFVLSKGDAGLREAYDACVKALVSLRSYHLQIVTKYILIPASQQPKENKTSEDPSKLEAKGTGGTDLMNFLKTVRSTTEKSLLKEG

Regarding `CC(C)CN(CC(C)C)c1ncc(C(C)CC(=O)O)cc1Nc1nc(C(F)(F)F)ns1` (stereo not shown) [Example 1, 3-(6-(diisobutylamino)-5-((3-(trifluoromethyl)-1,2,4-thiadiazol-5-yl)amino)pyridin-3-yl)butanoic acid], the IC50 was 3.98 nM. As for `CC(C)CN(c1ncc(C(C)CC(=O)O)cc1Nc1ccc(C(F)(F)F)cn1)C1CCOCC1` (stereo not shown) [Example 2, 3-(6-(isobutyl(tetrahydro-2H-pyran-4-yl)amino)-5-((5-(trifluoromethyl)pyridin-2-yl)amino)pyridin-3-yl)butanoic acid], the figure is 3.98 nM; as for `CC(C)CN(c1ncc([C@H](C)CC(=O)O)cc1Nc1nc(C(F)(F)F)ns1)C1CCOCC1` [Example 3, (R)-3-(6-(isobutyl(tetrahydro-2H-pyran-4-yl)amino)-5-((3-(trifluoromethyl)-1,2,4-thiadiazol-5-yl)amino)pyridin-3-yl)butanoic acid], 1.26 nM.

`CC(C)CN(c1ncc([C@H](C)CC(=O)O)cc1Nc1ccc(Cl)nc1)C1CCOCC1` [Example 4, (R)-3-(5-((6-chloropyridin-3-yl)amino)-6-(isobutyl(tetrahydro-2H-pyran-4-yl)amino)pyridin-3-yl)butanoic acid]: the IC50 was 3.98 nM.

As for `CC(C)CN(c1ncc([C@H](C)CC(=O)O)cc1Nc1cnc(Cl)nc1)C1CCOCC1` [Example 5, (R)-3-(5-((2-chloropyrimidin-5-yl)amino)-6-(isobutyl(tetrahydro-2H-pyran-4-yl)amino)pyridin-3-yl)butanoic acid], the IC50 was 7.94 nM.

Take `CC(C)CN(c1ncc([C@H](C)CC(=O)O)cc1Nc1ccc(Cl)cn1)C1CCOCC1` [Example 6, (R)-3-(5-((5-chloropyridin-2-yl)amino)-6-(isobutyl(tetrahydro-2H-pyran-4-yl)amino)pyridin-3-yl)butanoic acid]: the IC50 was 5.01 nM.

Turning to `CC(C)CN(c1ncc([C@H](C)CC(=O)O)cc1Nc1ccc(Cl)c(F)n1)C1CCOCC1` [Example 7, (R)-3-(5-((5-chloro-6-fluoropyridin-2-yl)amino)-6-(isobutyl(tetrahydro-2H-pyran-4-yl)amino)pyridin-3-yl)butanoic acid], the IC50 was 6.31 nM. On to `CC(C)CN(c1ncc([C@H](C)CC(=O)O)cc1Nc1nc(C(C)C)ns1)C1CCOCC1` [Example 8], for which the IC50 was 10 nM. Under `C[C@H](CC(=O)O)c1cnc(N(CC2CC2)C2CCOCC2)c(Nc2ccc(Cl)cn2)c1` [Example 9, (R)-3-(5-((5-chloropyridin-2-yl)amino)-6-((cyclopropylmethyl)(tetrahydro-2H-pyran-4-yl)amino)pyridin-3-yl)butanoic acid] stands 20 nM; under `CC(C)CN(c1ncc([C@H](C)CC(=O)O)cc1Nc1n[nH]c(C(F)(F)F)n1)C1CCCCC1` [Example 10, (R)-3-(6-(cyclohexyl(isobutyl)amino)-5-((5-(trifluoromethyl)-1H-1,2,4-triazol-3-yl)amino)pyridin-3-yl)butanoic acid], 10 nM; under `CC(C)CN(c1ncc([C@H](C)CC(=O)O)cc1Nc1nc(C(F)(F)F)ns1)C1CCCCC1` [Example 11, (R)-3-(6-(cyclohexyl(isobutyl)amino)-5-((3-(trifluoromethyl)-1,2,4-thiadiazol-5-yl)amino)pyridin-3-yl)butanoic acid], 1 nM. As for `CC(C)CN(c1ncc([C@H](C)CC(=O)O)cc1Nc1nc(Cl)ns1)C1CCCCC1` [Example 12, (R)-3-(5-((3-chloro-1,2,4-thiadiazol-5-yl)amino)-6-(cyclohexyl(isobutyl)amino)pyridin-3-yl)butanoic acid], the figure is 2.51 nM; as for `CC(C)CN(c1ncc([C@H](C)CC(=O)O)cc1Nc1ccc(Cl)cn1)C1CCCCC1` [Example 13, (R)-3-(5-((5-chloropyridin-2-yl)amino)-6-(cyclohexyl(isobutyl)amino)pyridin-3-yl)butanoic acid], 1.58 nM.

As for `CC(C)CN(c1ncc([C@H](C)CC(=O)O)cc1Nc1nc(C(C)C)ns1)C1CCCCC1` [Example 14, (R)-3-(6-(cyclohexyl(isobutyl)amino)-5-((3-isopropyl-1,2,4-thiadiazol-5-yl)amino)pyridin-3-yl)butanoic acid], the IC50 was 3.16 nM. As for `COCc1nsc(Nc2cc([C@H](C)CC(=O)O)cnc2N(CC(C)C)C2CCCCC2)n1` [Example 15, (R)-3-(6-(cyclohexyl(isobutyl)amino)-5-((3-(methoxymethyl)-1,2,4-thiadiazol-5-yl)amino)pyridin-3-yl)butanoic acid], the figure is 5.01 nM. Under `Cc1nsc(Nc2cc([C@H](C)CC(=O)O)cnc2N(CC(C)C)C2CCCCC2)n1` [Example 16, (R)-3-(6-(cyclohexyl(isobutyl)amino)-5-((3-methyl-1,2,4-thiadiazol-5-yl)amino)pyridin-3-yl)butanoic acid] stands 7.94 nM. Regarding `CC(C)CN(c1ncc([C@H](C)CC(=O)O)cc1Nc1ccc(Cl)nc1)C1CCC(F)(F)CC1` [Example 17, (R)-3-(5-((6-chloropyridin-3-yl)amino)-6-((4,4-difluorocyclohexyl)(isobutyl)amino)pyridin-3-yl)butanoic acid], the IC50 was 1.58 nM.

For `CC(C)CN(c1ncc([C@H](C)CC(=O)O)cc1Nc1ccc(Cl)cn1)C1CCC(F)(F)CC1` [Example 18, (R)-3-(5-((5-chloropyridin-2-yl)amino)-6-((4,4-difluorocyclohexyl) (isobutyl)amino)pyridin-3-yl)butanoic acid], the IC50 is 3.98 nM. As for `CC(C)CN(c1ncc([C@H](C)CC(=O)O)cc1Nc1ccc(Cl)nc1)C1CC(F)(F)C1` [Example 19, (R)-3-(5-((6-chloropyridin-3-yl)amino)-6-((3,3-difluorocyclobutyl)(isobutyl)amino)pyridin-3-yl) butanoic acid], the figure is 6.31 nM; as for `CC(C)CN(c1ncc([C@H](C)CC(=O)O)cc1Nc1nc(C(F)(F)F)ns1)C1CC(F)(F)C1` [Example 20, (R)-3-(6-((3,3-difluorocyclobutyl)(isobutyl)amino)-5-((3-(trifluoromethyl)-1,2,4-thiadiazol-5-yl)amino)pyridin-3-yl)butanoic acid], 7.94 nM. As for `CO[C@H]1CC[C@@H](N(CC(C)C)c2ncc([C@H](C)CC(=O)O)cc2Nc2nc(Cl)ns2)CC1` [Example 21, (R)-3-(5-((3-chloro-1,2,4-thiadiazol-5-yl)amino)-6-(isobutyl((1s,4S)-4-methoxycyclohexyl)amino)pyridin-3-yl)butanoic acid], the figure is 5.01 nM. With `CO[C@H]1CC[C@@H](N(CC(C)C)c2ncc([C@H](C)CC(=O)O)cc2Nc2nc(C(F)(F)F)ns2)CC1` [Example 22, (R)-3-(6-(isobutyl((1s,4S)-4-methoxycyclohexyl)amino)-5-((3-(trifluoromethyl)-1,2,4-thiadiazol-5-yl)amino)pyridin-3-yl) butanoic acid], the IC50 was 1.26 nM. Take `CO[C@H]1CC[C@@H](N(CC(C)C)c2ncc([C@H](C)CC(=O)O)cc2Nc2ccc(C#N)nc2)CC1` [Example 23, (R)-3-(5-((6-cyanopyridin-3-yl)amino)-6-(isobutyl((1s,4S)-4-methoxycyclohexyl)amino)pyridin-3-yl)butanoic acid]: the IC50 was 3.98 nM.

Turning to `CO[C@H]1CC[C@@H](N(CC(C)C)c2ncc([C@H](C)CC(=O)O)cc2Nc2ccc(Cl)cn2)CC1` [Example 24, (R)-3-(5-((5-chloropyridin-2-yl)amino)-6-(isobutyl((1s,4S)-4-methoxycyclohexyl)amino)pyridin-3-yl)butanoic acid], the IC50 was 5.01 nM. Under `CO[C@H]1CC[C@@H](N(CC(C)C)c2ncc([C@H](C)CC(=O)O)cc2Nc2ccc(C#N)cn2)CC1` [Example 25, (R)-3-(5-((5-cyanopyridin-2-yl)amino)-6-(isobutyl((1s,4S)-4-methoxycyclohexyl)amino)pyridin-3-yl)butanoic acid] stands 7.94 nM.
